{"source": "paper PMC12136788", "binders": {"B1": {"name": "ENSG00000107863:be:win_1351|CDS|ENSG00000107863|bound_else_gene|NA|bound_elsewhere_windowed (ssRNA)", "RNA": "GGGAGUUCUACAGUCCGACGAUCGUCCAGAUACGGCAACGCAGUGUGUCCCAAGAAAGACUGGAAGAUUCUGUGCUAAUGAAGUAUUGUCCAAGAAGUGCAUCUCAAGGAGCACUGACGUCUCCAUCUGUUAGUUUUAGUAAUCAACAGAGGAUUGAGCAUCA"}, "B2": {"name": "chr12:56205560:56205676:-|3pUTR|ENSG00000181852|unk|FALSE|unique (ssRNA)", "RNA": "GGGAGUUCUACAGUCCGACGAUCCUCUUGUGGCACAGGCCAUAAUUGUUCCAUAGACCCCUCUCUAGCCCUGUGACUGUAGUUAGUUACUUUGAUAAUUUUCUUUGGCCAUUGUUUGUUUAUAUUUCACAAACUCCACCUACUCAACAGAGGAUUGAGCAUCA"}, "B3": {"name": "chr17:57106211:57106324:+|CDS|ENSG00000121057|unk|FALSE|unique (ssRNA)", "RNA": "GGGAGUUCUACAGUCCGACGAUCUCAUCCCAGGUGGUGGGGCCAGUGCAGGAGGAAGAGUAUGUAGCAGAGAAGUUGCCAAGUAGGUUCAUCGAGUCGGCUCACACAGAGCUGGCAAAGGACGAUGCGGCGCCAGCACCCCCACAACAGAGGAUUGAGCAUCA"}, "B4": {"name": "chr1:205084032:205084133:-|CDS|ENSG00000174529|msi1|total|mutant (ssRNA)", "RNA": "GGGAGUUCUACAGUCCGACGAUCGGAGACCGUCUGUGAGGUGGGCCCUGAUGGAGUGAGAAGGAAAUGUCAGACUCGGCGCUCCGAAUGUCUGACCAACUGGAUCUGUGGGAUGCUCCAUUUCACCAUUCUCAUUGGCAAGGACAACAGAGGAUUGAGCAUCA"}, "B5": {"name": "chr3:149172415:149172516:+|3pUTR|ENSG00000163755|unk|FALSE|unique (ssRNA)", "RNA": "GGGAGUUCUACAGUCCGACGAUCUUACCGUGUAGUGGUAACUAUUCACUUCUUAAUUUAUGACCUCAAUCAAUUUAAUUGUCUAGAAUGUAAAAAGUCUUUAAGACAUAAGAAUUCCUCAAAGAAGCCAUACAUUUUUUAAGGCAACAGAGGAUUGAGCAUCA"}, "B6": {"name": "chr6:109001311:109001429:-|CDS|ENSG00000080546|unk|FALSE|unique (ssRNA)", "RNA": "GGGAGUUCUACAGUCCGACGAUCUGCUGCUUUGGGCCGUUUGGAUAACAUUACGUUAGUGAUGGUUUUCCACCCACAAUAUUUAGAAAGUUUCUUAAAAACUCAGCACUAUCUACUGCAAAUGGAUGGGCCGUUACCCCUACACAACAGAGGAUUGAGCAUCA"}, "B7": {"name": "chr9:83661418:83661519:-|3pUTR|ENSG00000135018|msi1|total|mutant (ssRNA)", "RNA": "GGGAGUUCUACAGUCCGACGAUCUACCGUUGGGUGACCAGAUUUUGUCCUGCAUCUGUCCAGUUUAUUUGCUUUUUAAACAUCCGCCUAUGGCCGUAAUUUAUGCCGAAUAAAAGCAUUAAAAAGAAGCAAAUCAUUUGCACUCAACAGAGGAUUGAGCAUCA"}, "B8": {"name": "chr17:76291014:76294021:-|CDS|ENSG00000129646|control|control|control (ssRNA)", "RNA": "GGGAGUUCUACAGUCCGACGAUCAGAAUGAGUUCUAGUUUCCCCACGGCAGUGGAGACAUUUCAUCUGAUGGGAGAGCUCAGUAGCCUCUAUGUGGGGCUAAAGGAGAGUAUGAAGGAUCUGGAUGAGGAGCAGGCCGGCCAACAACAGAGGAUUGAGCAUCA"}, "B9": {"name": "chr16:87831719:87831834:-|3pUTR|ENSG00000103257|msi1_unk|total|mutant (ssRNA)", "RNA": "GGGAGUUCUACAGUCCGACGAUCCCUGCGUUUGGAGGCCCCUGGGCUCUCACCCAGUCCCCACCCGCCUGCAGAGAGGGAACCCGGGCACCCCUUGUUUCUGUUGUUCCCGUGAAUUUUUUUCGCUAUGGGAGGCAGCCGAGGCAACAGAGGAUUGAGCAUCA"}, "B10": {"name": "chr3:36528868:36528981:+|CDS|ENSG00000144681|unk|FALSE|unique (ssRNA)", "RNA": "GGGAGUUCUACAGUCCGACGAUCAGAAUUGGCUUCUUUCCAGCCAACUUUGUUCAGAGACUACAACAAAAUGAGAAGAUUUUUAGAUGUGUUAGAACCUUCAUUGGGUGUAAGGAACAGGGGCAGAUAACACUGAAAGAGAAUCAACAGAGGAUUGAGCAUCA"}, "B11": {"name": "ENSG00000070961:be:win_5101|3pUTR|ENSG00000070961|bound_else_gene|NA|bound_elsewhere_windowed (ssRNA)", "RNA": "GGGAGUUCUACAGUCCGACGAUCAUGACCACCAUUGUCUUUGAUACAUUUAUUUUAAUUCUUAAGUGGCCAAAUAACAGAUUAGGUAAAAUGAGAUUACAUGAAAAGGUUCUAAAAUGAUAUAUUUAGAUGCAAUAAUUAACCCAACAGAGGAUUGAGCAUCA"}, "B12": {"name": "chr6:38153770:38153871:+|3pUTR|ENSG00000156639|msi1|FALSE|unique (ssRNA)", "RNA": "GGGAGUUCUACAGUCCGACGAUCGGUGGACAGGAUCAGGAUUCCCUUGAAAGCCCAGGCAGGGUGAGCAGUCCCAGUGGUCCUAGUGCCGCAUCAGAUCCAGGUGGGUGAGGGCAGGAGGCCCCUGCGGAGGCAGCGUGGAUCCAACAGAGGAUUGAGCAUCA"}, "B13": {"name": "chr19:45890022:45890622:-|three_prime_utr|ENSG00000176182|control|control|control (ssRNA)", "RNA": "GGGAGUUCUACAGUCCGACGAUCUCUCCCCAGCUUGGCGCAGUCGAGGGGGGCGAUGCUCUCUGCCCAUCCCAGCUGCACCCUAGCUCCCUGCUCCAGGGAUGUGAGCACCCACUCCCUGUGCUAGUUAGUGCCUGAUUCUCUCAACAGAGGAUUGAGCAUCA"}, "B14": {"name": "chr9:128390415:128390516:+|3pUTR|ENSG00000167118|msi1|FALSE|unique (ssRNA)", "RNA": "GGGAGUUCUACAGUCCGACGAUCCUUACAGCUCAUUCUGCUGGGGGUAGAGAUGAGGGGAGGGAGUAAGUUAAACCUUGGACUAGCAAGUAGAAGCCUGGGGGGAUGCGUGUGCCUCAGUUUCCUCCUCCACAACUGAAUAUACAACAGAGGAUUGAGCAUCA"}, "B15": {"name": "chr18:54155150:54155251:-|3pUTR|ENSG00000134046|unk|total|mutant (ssRNA)", "RNA": "GGGAGUUCUACAGUCCGACGAUCUUUCCACUGGCUUUUGCCUGUAAGAAAAAAAAUGUACCCGAGCACACCGAGCUUUUUAACCGCACUAACCAAUGCCUUUUCCGAUGUAUUUUUGAUGUAUAUAUCUAUUAUUCAAAAAAUCAACAGAGGAUUGAGCAUCA"}, "B16": {"name": "chr11:63758435:63758536:+|3pUTR|ENSG00000133318|msi1|total|mutant (ssRNA)", "RNA": "GGGAGUUCUACAGUCCGACGAUCAGAAAGAAUCAAAUUCACCGGAUAAGUCAAUACCUUAAUGGUGGCCGAGCCUUUACCUGCCGCUUGAAAGGGGAAAGAUUGGAGGUAAGAGAGAAAAUGAAAGAACACCUCUGGGUCCUUCAACAGAGGAUUGAGCAUCA"}, "B17": {"name": "chr11:74333230:74333331:-|3pUTR|ENSG00000165434|msi1|FALSE|unique (ssRNA)", "RNA": "GGGAGUUCUACAGUCCGACGAUCUGAGUCUUUUAUUGAAGGGUUCAAAGUAAGAAAUACUAUGCCAUAGUGUUCUCCAUCUCUAGUGAAGACAGAACCAGAGGGAAUAAGGAUCUUUUUUUUAAAGACAGCAUGGAAAGUUUACAACAGAGGAUUGAGCAUCA"}, "B18": {"name": "chr1:51271806:51271833:+|3pUTR|ENSG00000123091|msi1_unk|total|mutant (ssRNA)", "RNA": "GGGAGUUCUACAGUCCGACGAUCCAUUUGGGUCAAGGUUUUAUUAAAAGCUACAUUUUAUAACACUGGCACACACAAAAAAGCCGUUUUAAGCUUGUUUGCACAGUUCUUUUUUUCCAUUGGAAAUGGAAUUCAUUGCCUCCGCAACAGAGGAUUGAGCAUCA"}, "B19": {"name": "chr1:205715917:205716022:-|3pUTR|ENSG00000069275|msi1_unk|FALSE|overlapping (ssRNA)", "RNA": "GGGAGUUCUACAGUCCGACGAUCGAGACAGGCUCUGAAUAACCUUUGUUUUCUCCACUUUUUAUUGAUGAUUUAAAACACUCUAGUCUUCCCCUCAAAUCAUGCAUGCAAAUAGGAGGACAGUGGUGGUGACUCAACUGGAUACAACAGAGGAUUGAGCAUCA"}, "B20": {"name": "chr8:23843870:23844003:-|3pUTR|ENSG00000159167|msi1|FALSE|unique (ssRNA)", "RNA": "GGGAGUUCUACAGUCCGACGAUCAAUUCCAGAGGACUCUGCUUAAACAAAGCAGUAUAUAAUAACUUUAUUGCAUAUAGAUUUAGUUUUGUAACUUAGCUUUAUUUUUCUUUUCCUGGGAAUGGAAUAACUAUCUCACUUCCACAACAGAGGAUUGAGCAUCA"}, "B21": {"name": "ENSG00000182541:stop:overlap|stop_codon|ENSG00000182541|stop_codon|NA|stop_codon (ssRNA)", "RNA": "GGGAGUUCUACAGUCCGACGAUCUGGAGGAGUUGGACCACACUGUGAGCAUGCAGUACGGCCUGACCCGGGACUCACCUCCCUAGCCCUGGCCCAGCCCCCUGCAGGGGGGUGUUCUACAGCCAGCAUUGCCCCUCUGUGCCCCAACAGAGGAUUGAGCAUCA"}, "B22": {"name": "chr8:41263181:41263319:-|3pUTR|ENSG00000104332|msi1|total|mutant (ssRNA)", "RNA": "GGGAGUUCUACAGUCCGACGAUCCUUAAGUGAUUUGCCUGUAAUUUUGGAUGAUUAAAAAAUGUGUAUAUAUAUCCGCUAAUCCGAAAUAUUCUACUUCUCUGUUGUCAAACUGAAAUUCAGAGCAAGUUCCUGAGUGCGUGGCAACAGAGGAUUGAGCAUCA"}}, "note": "The other results are listed elsewhere or left out.", "data": [{"target": "T1, UNK ZnF1-6 (called full-length) (human, UniProt Q9C0B0 30-357)", "T1 sequence": "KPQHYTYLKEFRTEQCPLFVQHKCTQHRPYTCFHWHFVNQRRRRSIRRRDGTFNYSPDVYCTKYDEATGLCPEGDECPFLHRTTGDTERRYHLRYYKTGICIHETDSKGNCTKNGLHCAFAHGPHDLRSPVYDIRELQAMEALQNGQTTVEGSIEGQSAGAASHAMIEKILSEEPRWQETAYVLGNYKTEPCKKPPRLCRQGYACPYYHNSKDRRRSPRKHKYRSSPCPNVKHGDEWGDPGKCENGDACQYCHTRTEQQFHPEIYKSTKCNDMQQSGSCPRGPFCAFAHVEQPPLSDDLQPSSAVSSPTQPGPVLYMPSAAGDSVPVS", "test": "nsRBNS (natural sequence RNA bind-n-seq); RBNS binding buffer (assumed for nsRBNS): 25 mM Tris pH 7.5, 150 mM KCl, 3 mM MgCl2, 0.01% Triton X-100, 500 ug/ml BSA, 20 U/ml SUPERase-In, 4 C; UNK is unkempt and MSI1 is Musashi-1; names of the RNAs are library labels; protein concentration not given here; high values mean tight binding", "units": {"binding signal": "enrichment R"}, "values": [{"binder": "B1", "binding signal": 4.38}, {"binder": "B2", "binding signal": 33.5}, {"binder": "B3", "binding signal": 1.49}, {"binder": "B4", "binding signal": 0.782}, {"binder": "B5", "binding signal": 2.23}, {"binder": "B6", "binding signal": 0.699}, {"binder": "B7", "binding signal": 0.284}, {"binder": "B8", "binding signal": 0.915}, {"binder": "B9", "binding signal": 0.698}, {"binder": "B10", "binding signal": 0.53}, {"binder": "B11", "binding signal": 3.73}, {"binder": "B12", "binding signal": 0.932}, {"binder": "B13", "binding signal": 0.708}, {"binder": "B14", "binding signal": 1.14}, {"binder": "B15", "binding signal": 0.82}, {"binder": "B16", "binding signal": 0.565}, {"binder": "B17", "binding signal": 0.392}, {"binder": "B18", "binding signal": 0.464}, {"binder": "B19", "binding signal": 0.807}, {"binder": "B20", "binding signal": 13.9}, {"binder": "B21", "binding signal": 0.881}, {"binder": "B22", "binding signal": 0.347}]}]}
